Data on 4 molecules can be found in paper PMC10806146.

These are yes or no findings as the source states them, for the method shown. Binding seen in cells or lysates may run through a third protein. Some results given as binding are weak or reduced against the parent protein; the word gives no strength. For some of these results: Where a sequence is shown, tags or fusion partners need not be part of it.

Assay [1] addresses T1, interleukin-1 receptor associated kinase-M (IRAK-M), wild type (human) (UniProt Q9Y616).
T1 sequence: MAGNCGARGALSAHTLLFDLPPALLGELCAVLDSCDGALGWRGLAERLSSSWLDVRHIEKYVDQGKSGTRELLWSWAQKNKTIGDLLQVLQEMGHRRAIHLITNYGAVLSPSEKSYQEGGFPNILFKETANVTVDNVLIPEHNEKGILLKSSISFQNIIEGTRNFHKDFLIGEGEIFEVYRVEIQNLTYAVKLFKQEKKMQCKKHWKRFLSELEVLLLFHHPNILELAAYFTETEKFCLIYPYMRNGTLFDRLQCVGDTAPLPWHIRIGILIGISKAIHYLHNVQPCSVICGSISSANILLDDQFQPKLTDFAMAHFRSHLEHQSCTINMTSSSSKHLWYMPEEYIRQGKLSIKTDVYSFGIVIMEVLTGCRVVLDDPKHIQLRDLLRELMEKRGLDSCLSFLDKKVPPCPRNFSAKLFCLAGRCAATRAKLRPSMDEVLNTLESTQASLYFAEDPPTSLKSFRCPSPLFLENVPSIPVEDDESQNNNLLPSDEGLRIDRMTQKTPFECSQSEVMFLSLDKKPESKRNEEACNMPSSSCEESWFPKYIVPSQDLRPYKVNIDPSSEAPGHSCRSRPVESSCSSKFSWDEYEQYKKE
Put plainly: co-IP; full-length IRAK-M (WT or mutant) co-expressed with its 526stop form in 293T cells (CRISPR control; also IRAK-1 KO); IP with 1F6, which recognises the end of the C-terminal domain; blot with anti-IRAK-M A5467.

The target in assay [2] is T2, IRAK-M R97Q (human) (UniProt Q9Y616).
T2 sequence: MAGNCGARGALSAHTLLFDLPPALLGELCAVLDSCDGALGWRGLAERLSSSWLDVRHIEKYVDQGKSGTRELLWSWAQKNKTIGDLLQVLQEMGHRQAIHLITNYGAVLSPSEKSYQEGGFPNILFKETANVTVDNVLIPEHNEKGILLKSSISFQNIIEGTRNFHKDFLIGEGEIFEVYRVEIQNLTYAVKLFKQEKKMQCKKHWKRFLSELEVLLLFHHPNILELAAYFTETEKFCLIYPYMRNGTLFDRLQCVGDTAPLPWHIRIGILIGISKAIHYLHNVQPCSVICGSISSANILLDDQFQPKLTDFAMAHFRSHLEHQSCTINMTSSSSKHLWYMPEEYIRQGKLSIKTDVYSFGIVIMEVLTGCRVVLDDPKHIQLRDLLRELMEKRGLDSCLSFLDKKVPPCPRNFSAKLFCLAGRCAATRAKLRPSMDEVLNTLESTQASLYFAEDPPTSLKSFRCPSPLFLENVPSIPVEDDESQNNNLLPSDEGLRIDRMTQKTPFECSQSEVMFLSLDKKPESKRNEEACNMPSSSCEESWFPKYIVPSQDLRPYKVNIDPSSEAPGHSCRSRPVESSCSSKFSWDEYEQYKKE
Described as above.

The target of assay [3] is T3, IRAK-M W74A (human) (UniProt Q9Y616).
T3 sequence: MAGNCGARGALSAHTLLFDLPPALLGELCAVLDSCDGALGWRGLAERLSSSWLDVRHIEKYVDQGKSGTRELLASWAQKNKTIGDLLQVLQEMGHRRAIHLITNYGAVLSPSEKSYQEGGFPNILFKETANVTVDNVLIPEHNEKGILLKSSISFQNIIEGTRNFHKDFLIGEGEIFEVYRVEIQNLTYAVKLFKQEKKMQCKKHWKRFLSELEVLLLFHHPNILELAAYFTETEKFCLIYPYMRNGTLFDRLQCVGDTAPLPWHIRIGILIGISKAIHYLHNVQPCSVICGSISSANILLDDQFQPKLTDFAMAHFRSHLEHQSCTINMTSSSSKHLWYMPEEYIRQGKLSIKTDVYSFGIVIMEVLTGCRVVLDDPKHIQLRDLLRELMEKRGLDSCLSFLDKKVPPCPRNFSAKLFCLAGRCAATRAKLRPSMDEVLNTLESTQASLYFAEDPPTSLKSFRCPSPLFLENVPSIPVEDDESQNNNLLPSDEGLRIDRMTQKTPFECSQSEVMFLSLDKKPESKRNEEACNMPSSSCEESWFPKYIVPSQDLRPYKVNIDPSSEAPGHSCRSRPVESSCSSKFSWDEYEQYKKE
Described as above.

In assay [4] the target is T3, IRAK-M W74A (human). Put plainly: co-IP; IRAK-M WT or mutant co-expressed with IRAK-4-FLAG and MyD88-HA in 293T cells; IP with anti-IRAK-M 1F6 and protein A/G agarose; blots with anti-FLAG, anti-HA and anti-IRAK-M 4369.

B1: IRAK-M K526Stop (domain or fragment, UniProt Q9Y616 1-525)
chain: MAGNCGARGALSAHTLLFDLPPALLGELCAVLDSCDGALGWRGLAERLSSSWLDVRHIEKYVDQGKSGTRELLWSWAQKNKTIGDLLQVLQEMGHRRAIHLITNYGAVLSPSEKSYQEGGFPNILFKETANVTVDNVLIPEHNEKGILLKSSISFQNIIEGTRNFHKDFLIGEGEIFEVYRVEIQNLTYAVKLFKQEKKMQCKKHWKRFLSELEVLLLFHHPNILELAAYFTETEKFCLIYPYMRNGTLFDRLQCVGDTAPLPWHIRIGILIGISKAIHYLHNVQPCSVICGSISSANILLDDQFQPKLTDFAMAHFRSHLEHQSCTINMTSSSSKHLWYMPEEYIRQGKLSIKTDVYSFGIVIMEVLTGCRVVLDDPKHIQLRDLLRELMEKRGLDSCLSFLDKKVPPCPRNFSAKLFCLAGRCAATRAKLRPSMDEVLNTLESTQASLYFAEDPPTSLKSFRCPSPLFLENVPSIPVEDDESQNNNLLPSDEGLRIDRMTQKTPFECSQSEVMFLSLDKKPES
Regarding B1, in assay [1], the binding result was “binds”.

B2: IRAK-M R97Q/526stop (domain or fragment, UniProt Q9Y616 1-525)
chain: MAGNCGARGALSAHTLLFDLPPALLGELCAVLDSCDGALGWRGLAERLSSSWLDVRHIEKYVDQGKSGTRELLWSWAQKNKTIGDLLQVLQEMGHRQAIHLITNYGAVLSPSEKSYQEGGFPNILFKETANVTVDNVLIPEHNEKGILLKSSISFQNIIEGTRNFHKDFLIGEGEIFEVYRVEIQNLTYAVKLFKQEKKMQCKKHWKRFLSELEVLLLFHHPNILELAAYFTETEKFCLIYPYMRNGTLFDRLQCVGDTAPLPWHIRIGILIGISKAIHYLHNVQPCSVICGSISSANILLDDQFQPKLTDFAMAHFRSHLEHQSCTINMTSSSSKHLWYMPEEYIRQGKLSIKTDVYSFGIVIMEVLTGCRVVLDDPKHIQLRDLLRELMEKRGLDSCLSFLDKKVPPCPRNFSAKLFCLAGRCAATRAKLRPSMDEVLNTLESTQASLYFAEDPPTSLKSFRCPSPLFLENVPSIPVEDDESQNNNLLPSDEGLRIDRMTQKTPFECSQSEVMFLSLDKKPES
Consider B2, for which the binding result in assay [2] is on record as “binds”.

B3: IRAK-M W74A/526stop (domain or fragment, UniProt Q9Y616 1-525)
chain: MAGNCGARGALSAHTLLFDLPPALLGELCAVLDSCDGALGWRGLAERLSSSWLDVRHIEKYVDQGKSGTRELLASWAQKNKTIGDLLQVLQEMGHRRAIHLITNYGAVLSPSEKSYQEGGFPNILFKETANVTVDNVLIPEHNEKGILLKSSISFQNIIEGTRNFHKDFLIGEGEIFEVYRVEIQNLTYAVKLFKQEKKMQCKKHWKRFLSELEVLLLFHHPNILELAAYFTETEKFCLIYPYMRNGTLFDRLQCVGDTAPLPWHIRIGILIGISKAIHYLHNVQPCSVICGSISSANILLDDQFQPKLTDFAMAHFRSHLEHQSCTINMTSSSSKHLWYMPEEYIRQGKLSIKTDVYSFGIVIMEVLTGCRVVLDDPKHIQLRDLLRELMEKRGLDSCLSFLDKKVPPCPRNFSAKLFCLAGRCAATRAKLRPSMDEVLNTLESTQASLYFAEDPPTSLKSFRCPSPLFLENVPSIPVEDDESQNNNLLPSDEGLRIDRMTQKTPFECSQSEVMFLSLDKKPES
Take B3: the binding entry in assay [3] was “binds”.

B4: IRAK-4-FLAG (protein, UniProt Q9NWZ3 1-460)
chain: MNKPITPSTYVRCLNVGLIRKLSDFIDPQEGWKKLAVAIKKPSGDDRYNQFHIRRFEALLQTGKSPTSELLFDWGTTNCTVGDLVDLLIQNEFFAPASLLLPDAVPKTANTLPSKEAITVQQKQMPFCDKDRTLMTPVQNLEQSYMPPDSSSPENKSLEVSDTRFHSFSFYELKNVTNNFDERPISVGGNKMGEGGFGVVYKGYVNNTTVAVKKLAAMVDITTEELKQQFDQEIKVMAKCQHENLVELLGFSSDGDDLCLVYVYMPNGSLLDRLSCLDGTPPLSWHMRCKIAQGAANGINFLHENHHIHRDIKSANILLDEAFTAKISDFGLARASEKFAQTVMTSRIVGTTAYMAPEALRGEITPKSDIYSFGVVLLEIITGLPAVDEHREPQLLLDIKEEIEDEEKTIEDYIDKKMNDADSTSVEAMYSVASQCLHEKKNKRPDIKKVQQLLQEMTAS
Regarding B4, in assay [4], the binding entry is reported as “no binding”.
